Results: paper PMC5892938
Some of the results follow. At the low end of the ranking the order means little.

Target: GST-SBP-SLBP (stem-loop binding protein) (UniProt Q14493)
Test: targeted RNA Bind-n-Seq;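 note: DESeq read counts versus GST-SBP nonspecific binding control pulldown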
Settings: RBNS binding buffer: 25 mM Tris pH 7.5, 150 mM KCl, 3 mM MgCl2, 0.1% Tween, 0.5 mg/mL BSA, 1 mM DTT; 27 nM protein, 750 pM RNA pool; temperature not stated; high values mean tight binding

Sequence	binding signal (log2 fold change)
GGUCACGUCUCAAUCAACUCAAUCUCCAGGGAAACCCCUGGUUUACUCAACAGCUCGCAGUCAAG	-0.158
GGUCACGUCUCAAUCAACUCUAUCCCCAGGGAAAUCCCUGGCUAUUUCAACAGCUCGCAGUCAAG	0.114
GGUCACGUCUCAAUCAACUCAUUCCCCAGGGAAAUCCCUGGCAAUCUCAACAGCUCGCAGUCAAG	-0.0336
GGUCACGUCUCAAUCAACUCUUUUUCCAGGGAAAGCCCUGGCAUAUUCAACAGCUCGCAGUCAAG	0.18
GGUCACGUCUCAAUCAACUCAACUUCAGGAGUUUUCUCCUGUUAUGUCAACAGCUCGCAGUCAAG	0.0344
GGUCACGUCUCAAUCAACUCCCACGAGGGGGGGAAAACCCCUUUACCCUCACCUUCAACAGCUCGCAGUCAAG	-0.0503
GGUCACGUCUCAAUCAACUCUCAAGAGGGGGGGAAAACCCCUUUACCCUCAACCUCAACAGCUCGCAGUCAAG	-0.137
GGUCACGUCUCAAUCAACUCUUUUUCAGGAGUUUACUCCUGUAUACUCAACAGCUCGCAGUCAAG	0.0679
GGUCACGUCUCAAUCAACUCUUUCCCAGGAGUUUACUCCUGCAAUCUCAACAGCUCGCAGUCAAG	0.109
GGUCACGUCUCAAUCAACUCAUUUCCCAGGGAAACCCCUGGCAUACUCAACAGCUCGCAGUCAAG	0.161
GGUCACGUCUCAAUCAACUCUACUUCCAGGGAAACCCCUGGCUUACUCAACAGCUCGCAGUCAAG	-0.125
GGUCACGUCUCAAUCAACUCAUCUUCAGGAGUUUCCUCCUGUAUAUUCAACAGCUCGCAGUCAAG	0.127
GGUCACGUCUCAAUCAACUCUUCCCCAGGAGUUUUCUCCUGCAAUUUCAACAGCUCGCAGUCAAG	-0.038
GGUCACGUCUCAAUCAACUCUACUUCCAGGGAAAGCCCUGGUUUUCUCAACAGCUCGCAGUCAAG	-0.183
GGUCACGUCUCAAUCAACUCUUCUCCCAGGGAAAUCCCUGGUUAACUCAACAGCUCGCAGUCAAG	-0.152
GGUCACGUCUCAAUCAACUCAAUUUCCAGGGAAAUCCCUGGCGUAUUCAACAGCUCGCAGUCAAG	0.0665
GGUCACGUCUCAAUCAACUCAACUUCAGGAGUUUCCUCCUGCAUACUCAACAGCUCGCAGUCAAG	0.102
GGUCACGUCUCAAUCAACUCUUACGAGGGGGGGAAAACCCCUUUGCCCUCACUUUCAACAGCUCGCAGUCAAG	-0.381
GGUCACGUCUCAAUCAACUCAUCUCCCAGGGAAACCCCUGGCAUACUCAACAGCUCGCAGUCAAG	-0.0609
GGUCACGUCUCAAUCAACUCAUUCUCAGGAGUUUGCUCCUGUAUUCUCAACAGCUCGCAGUCAAG	-0.137
GGUCACGUCUCAAUCAACUCAUCUCCCAGGGAAACCCCUGGCAAUUUCAACAGCUCGCAGUCAAG	-0.302
GGUCACGUCUCAAUCAACUCUUAAGAGGGGGGGAAAACCCCUUUACCCUCACUUUCAACAGCUCGCAGUCAAG	-0.0689
GGUCACGUCUCAAUCAACUCUCUAGAGGGGGGGAAAACCCCUUUGCCCUCCGUAUCAACAGCUCGCAGUCAAG	-0.254
GGUCACGUCUCAAUCAACUCAUCCUCCAGGGAAAUCCCUGGUAUACUCAACAGCUCGCAGUCAAG	0.0231

Sequence	binding signal (log2 fold change)
GGUCACGUCUCAAUCAACUCUUCCCCCAGGGAAACCCCUGGUAAACUCAACAGCUCGCAGUCAAG	-0.338
GGUCACGUCUCAAUCAACUCUUUCUCCAGGGAAAACCCUGGCUAACUCAACAGCUCGCAGUCAAG	-0.0779
GGUCACGUCUCAAUCAACUCAUCUUCCAGGGAAAGCCCUGGUAUUCUCAACAGCUCGCAGUCAAG	0.275
GGUCACGUCUCAAUCAACUCCCUAGAGGGGGGGAAAACCCCUUUGCCCUCAUUCUCAACAGCUCGCAGUCAAG	-0.135
GGUCACGUCUCAAUCAACUCCUUCGAGGGGGGGAAAACCCCUUUACCCUCACUAUCAACAGCUCGCAGUCAAG	0.114
GGUCACGUCUCAAUCAACUCAUUUUCAGGAGUUUUCUCCUGUAGUCUCAACAGCUCGCAGUCAAG	0.0166
GGUCACGUCUCAAUCAACUCAACUCCAGGAGUUUGCUCCUGUAAUCUCAACAGCUCGCAGUCAAG	0.143
GGUCACGUCUCAAUCAACUCAUUCCCAGGAGUUUACUCCUGCUAUUUCAACAGCUCGCAGUCAAG	-0.199
GGUCACGUCUCAAUCAACUCAUCUUCAGGAGUUUCCUCCUGCUUAUUCAACAGCUCGCAGUCAAG	0.0129
GGUCACGUCUCAAUCAACUCACUAGAGGGGGGGAAAACCCCUUUACCCUCAUAAUCAACAGCUCGCAGUCAAG	-0.302
GGUCACGUCUCAAUCAACUCAAAAGAGGGGGGGAAAACCCCUUUGCCCUCGAAAUCAACAGCUCGCAGUCAAG	0.111
GGUCACGUCUCAAUCAACUCAGUCUCCAGGGAAAGCCCUGGCUAUUUCAACAGCUCGCAGUCAAG	-0.216
GGUCACGUCUCAAUCAACUCAUCGUCAGGAGUUUUCUCCUGCAAACUCAACAGCUCGCAGUCAAG	0.121
GGUCACGUCUCAAUCAACUCAAUUCCCAGGGAAACCCCUGGCUUUUUCAACAGCUCGCAGUCAAG	-0.164
GGUCACGUCUCAAUCAACUCAAUUCCCAGGGAAAUCCCUGGCAUUCUCAACAGCUCGCAGUCAAG	0.0712
GGUCACGUCUCAAUCAACUCACACGAGGGGGGGAAAACCCCUUUACCCUCAACCUCAACAGCUCGCAGUCAAG	-0.12
GGUCACGUCUCAAUCAACUCAUUCUCCAGGGAAAUCCCUGGUUUAUUCAACAGCUCGCAGUCAAG	0.0798
GGUCACGUCUCAAUCAACUCUAUCUCAGGAGUUUCCUCCUGUUUUCUCAACAGCUCGCAGUCAAG	-0.00215
GGUCACGUCUCAAUCAACUCACUAGAGGGGGGGAAAACCCCUUUGCCCUCAACUUCAACAGCUCGCAGUCAAG	0.151
GGUCACGUCUCAAUCAACUCGUCUUCAGGAGUUUUCUCCUGUUAUUUCAACAGCUCGCAGUCAAG	0.0505
GGUCACGUCUCAAUCAACUCACAAGAGGGGGGGAAAACCCCUUUACCCUCACCAUCAACAGCUCGCAGUCAAG	-0.121
GGUCACGUCUCAAUCAACUCAUCGCCAGGAGUUUACUCCUGCUUUUUCAACAGCUCGCAGUCAAG	-0.19
GGUCACGUCUCAAUCAACUCUUCGUCAGGAGUUUUCUCCUGUAUUCUCAACAGCUCGCAGUCAAG	0.0236
